# PubChem BioAssay AID686979 (National Center for Advancing Translational Sciences (NCATS), 2013)
# Screen size: about 420,000 compounds; about 50,000 (12%) were called active. Inconclusive results, whose numbers are uncertain, are shown with a selection of clear calls. Calls come from the whole dose curve; as a rule, active = well fitted inhibition curve with a large enough effect; inconclusive = small, poorly fitted or top-dose-only effect; inactive = flat fitted curve, though single readings scatter. Potencies of inconclusive entries are left out as doubtful fits.
# Experiment: qHTS for Inhibitors of human tyrosyl-DNA phosphodiesterase 1 (TDP1): qHTS in cells in presence of CPT; note: nearly all actives have a fitted effect of over 55% in size
# Conditions: chicken DT40 Tdp1-/-;hTDP1 cells + 20 nM CPT, ATP luminescence, 48 h; activity change, negative = growth inhibition: at 46.2 µM (top of the series) unless noted
# Summary of the method: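 Chicken DT40 Tdp1-/- cells stably complemented with human TDP1 were seeded at 400 cells/well in medium containing 20 nM camptothecin, exposed to pin-transferred compounds, and grown at 37 °C for at least 48 hr. Viability was read as ATP luminescence.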
# % is set by controls: 0 for no effect and ±100 for the full control effect; potency is the fitted concentration of half-maximal effect; tags give direction and shape of the fitted curve.
Compound,Potency,"activity change, negative = growth inhibition"
CC1(C)C2CCC(C2)C1(C)NC(=O)CNCc1cccs1 (stereo not given),"inconclusive [inhibitor, single point]",
CCOC(=O)c1ccc2c(c1)N(Cc1ccccc1)C(=O)c1ccccc1S2,"inconclusive [inhibitor, single point]",
CCC1CN(C(=O)N2CCC(C(=O)NCCc3ccccc3OC)CC2)c2ccccc2O1 (stereo not given),"inconclusive [inhibitor, single point]",
O=C(NNC(=O)C12CC3CC(CC(C3)C1)C2)c1ccccc1O,active: 8.2 µM,
COc1cccc(-c2cc(C(=O)Nc3ccn(Cc4ccc(C)cc4)n3)no2)c1,"inconclusive [inhibitor, single point]",
CC1CCCC(NC(=O)c2nn(C)c3c2CS(=O)(=O)c2ccccc2-3)C1C (stereo not given),"inconclusive [inhibitor, single point]",
CCOC(=O)CN(C(=O)CSc1nnnn1C)c1ccccc1,,inactive: 4.88%
O=C(Nc1cc(Cl)cc(Cl)c1)c1ccc(F)c(S(=O)(=O)NC2CCCCC2)c1,"inconclusive [inhibitor, single point]",
O=C(CCn1c(=O)sc2ccccc21)Nc1nc2ccccc2s1,"inconclusive [inhibitor, single point]",
O=C(Cc1ccccc1)NCCc1ccc(Cl)cc1Cl,,inactive: 9.04%
CCCCc1ccc(NC(=O)CSc2nc3ccccc3nc2N2CCOCC2)cc1,"inconclusive [inhibitor, single point]",
Cc1ccccc1N1CC(C(=O)N2CCc3ccccc32)CC1=O (stereo not given),,inactive: 0.69%
CCC(CO)Oc1cc(NCc2cccc(Cl)c2)c2ncn(C(C)C)c2c1 (stereo not given),"inconclusive [inhibitor, single point]",
NC(=S)NN=C(c1ccc(F)cc1)C1CC1,active: 20.6 µM,
Cc1ccc(C(=O)N2CCN(CCNC(=O)C(=O)Nc3ccc(Cl)cc3)CC2)cc1,"inconclusive [inhibitor, partial curve]",
COc1cc(CNC(=O)c2ccc3nc(Cc4ccccc4)oc3c2)cc(OC)c1OC,active: 6.51 µM,
O=C(Nc1ccc([N+](=O)[O-])cc1)N1CCc2ccccc2C1,,inactive: -22.8%
COc1ccc(NC2=NCC(=O)N2c2ccccc2)c(OC)c1,"inconclusive [inhibitor, single point]",
Cc1cc(C)c(NC(=O)CN2CCCCCC2)c(C)c1,"inconclusive [inhibitor, single point]",
CNC(=S)N(CCc1ccc(OC)c(OC)c1)C1CC(=O)N(c2ccccc2)C1=O (stereo not given),"inconclusive [inhibitor, partial curve]",
